According to article PMC12262889:
These are yes or no findings as the source states them, for the method shown. In cells and extracts the contact can be indirect. Some results given as binding are weak or reduced against the parent protein; the word gives no strength. For some assays here: Sequences can lack the tags named with a protein.

By UniProt entry, the sequences of proteins in these tests, tags left out.
UniProt P38431: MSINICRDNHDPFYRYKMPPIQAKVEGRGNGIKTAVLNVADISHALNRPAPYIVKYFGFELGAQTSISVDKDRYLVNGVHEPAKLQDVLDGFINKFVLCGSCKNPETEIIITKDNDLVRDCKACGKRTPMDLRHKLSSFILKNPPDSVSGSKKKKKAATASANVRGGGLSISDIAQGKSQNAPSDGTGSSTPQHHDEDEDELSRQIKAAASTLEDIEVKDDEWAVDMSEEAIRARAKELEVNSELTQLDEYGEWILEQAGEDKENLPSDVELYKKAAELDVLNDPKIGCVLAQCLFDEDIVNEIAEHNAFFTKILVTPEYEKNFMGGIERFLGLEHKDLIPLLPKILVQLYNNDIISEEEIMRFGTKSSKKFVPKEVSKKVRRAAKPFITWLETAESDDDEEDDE
UniProt P14126: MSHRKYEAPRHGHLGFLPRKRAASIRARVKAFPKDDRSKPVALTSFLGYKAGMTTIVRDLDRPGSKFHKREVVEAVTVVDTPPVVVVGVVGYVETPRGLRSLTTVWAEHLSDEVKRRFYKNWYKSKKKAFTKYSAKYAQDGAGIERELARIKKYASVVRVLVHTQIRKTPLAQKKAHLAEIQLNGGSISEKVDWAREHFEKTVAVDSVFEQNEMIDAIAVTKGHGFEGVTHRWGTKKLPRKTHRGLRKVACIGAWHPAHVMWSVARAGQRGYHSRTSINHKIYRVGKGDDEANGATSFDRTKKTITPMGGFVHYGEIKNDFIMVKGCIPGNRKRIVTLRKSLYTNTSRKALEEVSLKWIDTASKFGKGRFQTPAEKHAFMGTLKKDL

T1: Clu1-VN (S. cerevisiae) (UniProt Q03690)
T1 sequence: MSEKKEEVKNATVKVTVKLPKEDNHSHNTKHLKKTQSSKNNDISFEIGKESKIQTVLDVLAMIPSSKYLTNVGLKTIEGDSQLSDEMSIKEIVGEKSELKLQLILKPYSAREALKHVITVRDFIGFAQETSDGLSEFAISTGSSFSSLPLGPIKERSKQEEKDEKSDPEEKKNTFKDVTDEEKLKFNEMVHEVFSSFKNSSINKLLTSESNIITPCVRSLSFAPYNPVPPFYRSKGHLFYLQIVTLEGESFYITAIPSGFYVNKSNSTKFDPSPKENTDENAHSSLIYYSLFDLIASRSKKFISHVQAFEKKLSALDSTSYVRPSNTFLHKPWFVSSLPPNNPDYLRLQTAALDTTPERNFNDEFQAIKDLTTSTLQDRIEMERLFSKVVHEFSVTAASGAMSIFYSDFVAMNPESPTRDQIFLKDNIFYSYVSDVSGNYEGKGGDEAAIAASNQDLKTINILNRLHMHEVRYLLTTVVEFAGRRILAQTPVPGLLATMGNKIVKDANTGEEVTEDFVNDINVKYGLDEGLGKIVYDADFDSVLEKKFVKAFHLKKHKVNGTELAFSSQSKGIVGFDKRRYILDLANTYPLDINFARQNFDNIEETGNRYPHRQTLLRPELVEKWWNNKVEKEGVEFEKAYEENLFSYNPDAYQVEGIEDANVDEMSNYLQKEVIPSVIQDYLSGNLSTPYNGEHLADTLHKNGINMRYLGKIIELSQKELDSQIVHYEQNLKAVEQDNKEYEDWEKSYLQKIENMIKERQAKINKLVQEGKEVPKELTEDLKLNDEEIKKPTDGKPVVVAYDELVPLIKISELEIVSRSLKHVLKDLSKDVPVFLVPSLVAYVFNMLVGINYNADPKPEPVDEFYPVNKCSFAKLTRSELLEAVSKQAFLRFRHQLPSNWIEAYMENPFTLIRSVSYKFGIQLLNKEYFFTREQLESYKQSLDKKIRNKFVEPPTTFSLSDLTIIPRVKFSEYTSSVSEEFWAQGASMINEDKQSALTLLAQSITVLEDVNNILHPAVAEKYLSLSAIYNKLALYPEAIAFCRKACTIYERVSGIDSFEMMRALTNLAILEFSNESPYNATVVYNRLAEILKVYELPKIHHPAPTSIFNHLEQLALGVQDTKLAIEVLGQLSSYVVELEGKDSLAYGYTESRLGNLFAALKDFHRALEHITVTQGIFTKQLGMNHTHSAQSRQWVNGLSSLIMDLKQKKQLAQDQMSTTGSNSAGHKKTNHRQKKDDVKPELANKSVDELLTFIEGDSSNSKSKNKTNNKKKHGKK

T2: Clu1-TEV-GFP (S. cerevisiae) (UniProt Q03690)
T2 sequence: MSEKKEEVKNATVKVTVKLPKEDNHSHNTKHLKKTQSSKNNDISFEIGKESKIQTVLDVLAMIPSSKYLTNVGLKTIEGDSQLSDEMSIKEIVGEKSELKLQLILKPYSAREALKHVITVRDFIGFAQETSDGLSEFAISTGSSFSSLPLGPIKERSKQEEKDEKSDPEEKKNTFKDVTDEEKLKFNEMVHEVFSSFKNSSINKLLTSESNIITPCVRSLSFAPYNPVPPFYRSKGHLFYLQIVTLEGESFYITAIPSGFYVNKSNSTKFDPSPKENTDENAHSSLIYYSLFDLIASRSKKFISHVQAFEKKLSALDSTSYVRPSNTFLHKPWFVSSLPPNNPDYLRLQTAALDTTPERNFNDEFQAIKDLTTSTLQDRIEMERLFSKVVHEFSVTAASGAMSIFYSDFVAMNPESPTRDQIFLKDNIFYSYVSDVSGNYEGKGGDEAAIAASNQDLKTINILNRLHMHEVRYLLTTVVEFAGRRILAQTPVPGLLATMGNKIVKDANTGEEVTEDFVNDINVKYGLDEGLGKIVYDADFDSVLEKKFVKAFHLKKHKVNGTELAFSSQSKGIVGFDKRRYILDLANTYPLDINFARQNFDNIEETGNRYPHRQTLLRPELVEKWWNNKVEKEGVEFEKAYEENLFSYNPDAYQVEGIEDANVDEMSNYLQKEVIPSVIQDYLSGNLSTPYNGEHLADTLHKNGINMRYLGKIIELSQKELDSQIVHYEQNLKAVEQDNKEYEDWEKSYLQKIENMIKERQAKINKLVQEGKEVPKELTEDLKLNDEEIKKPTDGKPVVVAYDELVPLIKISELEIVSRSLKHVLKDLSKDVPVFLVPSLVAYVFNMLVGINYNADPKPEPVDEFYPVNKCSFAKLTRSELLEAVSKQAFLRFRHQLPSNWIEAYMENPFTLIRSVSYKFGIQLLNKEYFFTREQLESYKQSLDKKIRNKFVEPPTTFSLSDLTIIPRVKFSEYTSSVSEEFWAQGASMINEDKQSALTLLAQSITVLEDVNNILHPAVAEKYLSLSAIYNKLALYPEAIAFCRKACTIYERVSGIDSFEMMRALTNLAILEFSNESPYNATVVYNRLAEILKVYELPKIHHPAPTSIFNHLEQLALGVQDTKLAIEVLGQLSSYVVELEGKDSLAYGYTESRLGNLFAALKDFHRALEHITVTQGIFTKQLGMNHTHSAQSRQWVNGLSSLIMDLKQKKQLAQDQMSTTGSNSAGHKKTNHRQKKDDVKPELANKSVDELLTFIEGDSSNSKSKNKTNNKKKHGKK


Molecular target: T1, Clu1-VN (S. cerevisiae)
Assay: split reporter; BiFC in diploid yeast co-expressing Clu1-VN and protein-VC; cells in glucose media at mid-log phase or shifted to glycerol media for 24 h; Venus fluorescence by confocal microscopy

binding	Molecule
binds	Tif5-VC (from UniProt P38431 1-405)
binds	Rpl17b-VC (protein, UniProt P46990 1-184) MARYGATSTNPAKSASARGSYLRVSFKNTRETAQAINGWELTKAQKYLDQVLDHQRAIPFRRFNSSIGRTAQGKEFGVTKARWPAKSVKFVQGLLQNAAANAEAKGLDATKLYVSHIQVNQAPKQRRRTYRAHGRINKYESSPSHIELVVTEKEEAVAKAAEKKVVRLTSRQRGRIAAQKRISA
binds	Tif3-VC (protein, UniProt P34167 1-436) MAPPKKTVKKMDLTSFLNDDTFGSSWAEEDVDLNKITIPIETANANTIPLSELAHAKNNSNNTRSGGFGGSFGGRSRLDPALGGGSSDRREEYPVPDAPPYRAVINNIPWDITPEGVQAWVEDGLVKPEAVEEVVLPKNLRDPTRLKGNAFVTLKERADLVAVLKFNGTKLNERTVYVSVAAPRRGGGADVDWSSARGSNFQGDGREDAPDLDWGAARGSNFRGPRREREEVDIDWTAARGSNFQGSSRPPRREREEVDIDWSAARGSNFQGSSRPPRREREEPDIDWSAARGSNFQSSSRPPRREREEPDIDWSAARGSNFQSSSRPPRREREKEEPALDWGAARGAQFGKPQQTKNTYKDRSLTNKKTTDEQPKIQKSVYDVLRTEDDDEDEEAEKQNGDAKENKVDAAVEKLQDKTAQLTVEDGDNWEVVGKK
binds	Aco1-VC (protein, UniProt P19414 17-778) ATVSNLTRDSKVNQNLLEDHSFINYKQNVETLDIVRKRLNRPFTYAEKILYGHLDDPHGQDIQRGVSYLKLRPDRVACQDATAQMAILQFMSAGLPQVAKPVTVHCDHLIQAQVGGEKDLKRAIDLNKEVYDFLASATAKYNMGFWKPGSGIIHQIVLENYAFPGALIIGTDSHTPNAGGLGQLAIGVGGADAVDVMAGRPWELKAPKILGVKLTGKMNGWTSPKDIILKLAGITTVKGGTGKIVEYFGDGVDTFSATGMGTICNMGAEIGATTSVFPFNKSMIEYLEATGRGKIADFAKLYHKDLLSADKDAEYDEVVEIDLNTLEPYINGPFTPDLATPVSKMKEVAVANNWPLDVRVGLIGSCTNSSYEDMSRSASIVKDAAAHGLKSKTIFTVTPGSEQIRATIERDGQLETFKEFGGIVLANACGPCIGQWDRRDIKKGDKNTIVSSYNRNFTSRNDGNPQTHAFVASPELVTAFAIAGDLRFNPLTDKLKDKDGNEFMLKPPHGDGLPQRGYDAGENTYQAPPADRSTVEVKVSPTSDRLQLLKPFKPWDGKDAKDMPILIKAVGKTTTDHISMAGPWLKYRGHLENISNNYMIGAINAENKKANCVKNVYTGEYKGVPDTARDYRDQGIKWVVIGDENFGEGSSREHAALEPRFLGGFAIITKSFARIHETNLKKQGLLPLNFKNPADYDKINPDDRIDILGLAELAPGKPVTMRVHPKNGKPWDAVLTHTFNDEQIEWFKYGSALNKIKADEKK
binds	Scp160-VC (protein, UniProt P06105 1-1222) MSEEQTAIDSPPSTVEGSVETVTTIDSPSTTASTIAATAEEHPQLEKKPTPLPSLKDLPSLGSNAAFANVKVSWGPNMKPAVSNSPSPSPSAPSLTTGLGAKRMRSKNIQEAFTLDLQSQLSITKPELSRIVQSVKKNHDVSVESTLSKNARTFLVSGVAANVHEAKRELVKKLTKPINAVIEVPSKCKASIIGSGGRTIREISDAYEVKINVSKEVNENSYDEDMDDTTSNVSLFGDFESVNLAKAKILAIVKEETKNATIKLVVEDEKYLPYIDVSEFASDEGDEEVKVQFYKKSGDIVILGPREKAKATKTSIQDYLKKLASNLDEEKVKIPSKFQFLIDAEELKEKYNVIVTFPSTPDDELVSFVGLRDKVGEAITYARSSSKSYVVESLDISKAHSKNLTHAKNLIMYFTKYSVLKGLEESHPNVKISLPSIQSLPTAETVTIHISAKSDEANDIKAVRKELISFVNNIPPSETLVITDLDYELFGGSIKHCLLASESSVAFVQFGDYYPNDNSILLVALTEDEDFKPSIEEIQASLNKANESLNSLRTKQNNMETKTYEFSEEVQDSLFKPSSATWKLIMEDISEQEGHLQIKLHTPEENQLTVRGDEKAAKAANKIFESILNSPSSKSKMTVNIPANSVARLIGNKGSNLQQIREKFACQIDIPNEENNNASKDKTVEVTLTGLEYNLTHAKKYLAAEAKKWADIITKELIVPVKFHGSLIGPHGTYRNRLQEKYNVFINFPRDNEIVTIRGPSRGVNKAHEELKALLDFEMENGHKMVINVPAEHVPRIIGKNGDNINDIRAEYGVEMDFLQKSTDPKAQETGEVELEITGSRQNIKDAAKRVESIVAEASDFVTEVLKIDHKYHKSIVGSGGHILREIISKAGGEEIRNKSVDIPNADSENKDITVQGPQKFVKKVVEEINKIVKDAENSVTKTIDIPAERKGALIGPGGIVRRQLESEFNINLFVPNKDDPSGKITITGAPENVEKAEKKILNEIIRENFDREVDVPASIYEYVSERGAFIQKLRMDLSVNVRFGNTSKKANKLARAPIEIPLEKVCGSTEGENAEKTKFTIEEVGAPTSSEEGDITMRLTYEPIDLSSILSDGEEKEVTKDTSNDSAKKEEALDTAVKLIKERIAKAPSATYAGYVWGADTRRFNMIVGPGGSNIKKIREAADVIINVPRKSDKVNDVVYIRGTKAGVEKAGEMVLKSLRR
no binding	Sod2-VC (protein, UniProt P00447 27-233) KVTLPDLKWDFGALEPYISGQINELHYTKHHQTYVNGFNTAVDQFQELSDLLAKEPSPANARKMIAIQQNIKFHGGGFTNHCLFWENLAPESQGGGEPPTGALAKAIDEQFGSLDELIKLTNTKLAGVQGSGWAFIVKNLSNGGKLDVVQTYNQDTVTGPLVPLVAIDAWEHAYYLQYQNKKADYFKAIWNVVNWKEASRRFDAGKI
no binding	Pyc2-VC (protein, UniProt P32327 1-1180) MSSSKKLAGLRDNFSLLGEKNKILVANRGEIPIRIFRSAHELSMRTIAIYSHEDRLSMHRLKADEAYVIGEEGQYTPVGAYLAMDEIIEIAKKHKVDFIHPGYGFLSENSEFADKVVKAGITWIGPPAEVIDSVGDKVSARHLAARANVPTVPGTPGPIETVQEALDFVNEYGYPVIIKAAFGGGGRGMRVVREGDDVADAFQRATSEARTAFGNGTCFVERFLDKPKHIEVQLLADNHGNVVHLFERDCSVQRRHQKVVEVAPAKTLPREVRDAILTDAVKLAKVCGYRNAGTAEFLVDNQNRHYFIEINPRIQVEHTITEEITGIDIVSAQIQIAAGATLTQLGLLQDKITTRGFSIQCRITTEDPSKNFQPDTGRLEVYRSAGGNGVRLDGGNAYAGATISPHYDSMLVKCSCSGSTYEIVRRKMIRALIEFRIRGVKTNIPFLLTLLTNPVFIEGTYWTTFIDDTPQLFQMVSSQNRAQKLLHYLADLAVNGSSIKGQIGLPKLKSNPSVPHLHDAQGNVINVTKSAPPSGWRQVLLEKGPSEFAKQVRQFNGTLLMDTTWRDAHQSLLATRVRTHDLATIAPTTAHALAGAFALECWGGATFDVAMRFLHEDPWERLRKLRSLVPNIPFQMLLRGANGVAYSSLPDNAIDHFVKQAKDNGVDIFRVFDALNDLEQLKVGVNAVKKAGGVVEATVCYSGDMLQPGKKYNLDYYLEVVEKIVQMGTHILGIKDMAGTMKPAAAKLLIGSLRTRYPDLPIHVHSHDSAGTAVASMTACALAGADVVDVAINSMSGLTSQPSINALLASLEGNIDTGINVEHVRELDAYWAEMRLLYSCFEADLKGPDPEVYQHEIPGGQLTNLLFQAQQLGLGEQWAETKRAYREANYLLGDIVKVTPTSKVVGDLAQFMVSNKLTSDDIRRLANSLDFPDSVMDFFEGLIGQPYGGFPEPLRSDVLRNKRRKLTCRPGLELEPFDLEKIREDLQNRFGDIDECDVASYNMYPRVYEDFQKIRETYGDLSVLPTKNFLAPAEPDEEIEVTIEQGKTLIIKLQAVGDLNKKTGQREVYFELNGELRKIRVADKSQNIQSVAKPKADVHDTHQIGAPMAGVIIEVKVHKGSLVKKGESIAVLSAMKMEMVVSSPADGQVKDVFIKDGESVDASDLLVVLEEETLPPSQKK

Molecular target: T2, Clu1-TEV-GFP (S. cerevisiae)
Assay: co-IP; GFP immunoprecipitation (Dynabeads with mouse monoclonal GFP antibody) from log phase lysates of cells expressing Clu1-TEV-GFP or GFP, PLB with CHX; immunoblot for Rpl3

binding	Molecule
binds	ribosomal protein Rpl3 (from UniProt P14126 1-387)
